Experimental data from PubChem BioAssay AID588342 (National Center for Advancing Translational Sciences (NCATS), 2011).
The campaign covered roughly 360,000 compounds. About 25,000 (6.9%) were called active. Inconclusive means that the source gave no clear call. Such entries were picked first, then a sample of the others. Calls follow the shape of the dose curve; as a rule, active = well fitted inhibition curve with a large enough effect; inconclusive = small, poorly fitted or top-dose-only effect; inactive = flat fitted curve, though single readings scatter. Potencies of inconclusive entries are doubtful fits and often do not repeat.

These compounds were tested against Luciferin 4-monooxygenase (Photinus pyralis) (UniProt P08659) (assay: qHTS profiling assay for firefly luciferase inhibitor/activator using purifed enzyme and Km concentrations of substrates (counterscreen for miR-21 project)). Conditions: purified FLuc, luminescence inhibition; activity change, negative = inhibition: at 57.5 µM (top of the series).
Procedure, shortened: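 Purified P. pyralis luciferase (10nM final) with 10uM D-luciferin and 10uM ATP (Km levels) in 50mM Tris acetate pH 7.5, 10mM Mg acetate, 0.01% Tween-20, 0.05% BSA; qHTS 6-point titration, ~60 µM downward; luminescence read.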
Also: nearly all actives have a fitted effect of over 55% in size.
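For activity change, negative = inhibition in this document: plate controls were vehicle for no effect and reference inhibitor for full effect.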
Potency is read from the fitted curve at half-maximal effect; tags tell the direction and shape of the fitted curve.

Chain of UniProt P08659 (P08659 whole entry, looked up): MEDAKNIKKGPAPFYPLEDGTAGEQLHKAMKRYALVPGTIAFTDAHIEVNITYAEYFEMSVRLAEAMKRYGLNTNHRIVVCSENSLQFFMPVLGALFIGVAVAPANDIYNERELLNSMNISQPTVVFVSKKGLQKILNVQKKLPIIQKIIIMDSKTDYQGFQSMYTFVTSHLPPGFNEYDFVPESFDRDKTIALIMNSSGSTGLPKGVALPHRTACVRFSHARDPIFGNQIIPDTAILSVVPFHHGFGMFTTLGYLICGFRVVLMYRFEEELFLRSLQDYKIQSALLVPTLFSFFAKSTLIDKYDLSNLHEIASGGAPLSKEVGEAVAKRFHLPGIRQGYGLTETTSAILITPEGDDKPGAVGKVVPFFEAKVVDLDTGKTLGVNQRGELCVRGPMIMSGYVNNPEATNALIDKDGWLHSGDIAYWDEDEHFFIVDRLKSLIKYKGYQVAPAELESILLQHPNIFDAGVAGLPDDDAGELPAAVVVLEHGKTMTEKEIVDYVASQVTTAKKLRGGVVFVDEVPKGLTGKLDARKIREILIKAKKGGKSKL

Compound | Potency | activity change, negative = inhibition
CC(C)(C)c1ccc(NC(=O)CC2(C(F)(F)F)OCCO2)cc1 | inconclusive: 9.53 µM [inhibitor, partial curve] | –
O=C(Oc1ccc2c(c1)OCO2)c1cccs1 | active: 10.7 µM | –
COc1ccc(C2(C)NC(=O)N(CC(=O)Nc3ccc4ccccc4c3)C2=O)cc1OC (stereo unspecified) | – | inactive: 2.33%
COc1ccc(/C=C2\SC(=S)N(CCC(=O)NCCc3ccc(O)cc3)C2=O)cc1 | inconclusive: 9.53 µM [inhibitor, partial curve, poor fit] | –
Cc1ccc2cc3c(N)c4c(C)ccc(C)c4nc3nc2c1 | inconclusive: 30.1 µM [inhibitor, partial curve, poor fit] | –
Cc1ccc(C(=O)N/N=C/c2nc3ccccc3n2C)cc1 | inconclusive: 7.57 µM [inhibitor, full curve] | –
COc1ccc(N2CCN(C(CNS(C)(=O)=O)c3ccco3)CC2)cc1 (stereo unspecified) | – | inactive: -1.1%
O=S(=O)(Nc1cccc2c1CCCC2)c1ccc(Cl)cc1 | – | inactive: -8.26%
Cc1cc2oc(=O)c(CC(=O)NCCc3ccccc3F)c(C)c2c2occ(C(C)(C)C)c12 | inconclusive: 5.36 µM [inhibitor, full curve] | –
CC(=O)Nc1cc(C(=O)NCc2ccc(F)cc2)ccc1Sc1ccc(F)cc1 | – | inactive: 5.72%
COc1cccc2[nH]c3c(N4CCCC(C)C4)ncnc3c12 (stereo unspecified) | active: 5.36 µM | –
CN(c1ccccc1)c1nc(N)c([N+](=O)[O-])c(N2CCCC2)n1 | inconclusive: 26.9 µM [inhibitor, partial curve] | –
CCCCN(C(=O)C1CCC(CNS(=O)(=O)c2cccc3nsnc23)CC1)c1ccccc1 (stereo unspecified) | – | inactive: 0.109%
Cc1c(N=C2C=C(Br)C(=O)C(Br)=C2)c(=O)n(-c2ccccc2)n1C | active: 15.1 µM | –
COc1ccc(Nc2ncnc3ccc(Br)cc23)c(OC)c1 | active: 26.9 µM | –
CCc1ccc(CNC(=O)CCc2nc(-c3cccs3)no2)cc1 | – | inactive: 1.93%
CCCCNC(=O)O[C@@H]1C[C@H]2CCC(=O)N3CC[C@@H](C1)[C@@H]23 | – | inactive: -0.245%
Cc1cccc(C(=O)Nc2ccc3c(c2)ncn3C)c1 | active: 9.53 µM | –
O=C(Nc1ccc(Cl)cn1)Nc1ccccc1F | inconclusive: 13.5 µM [inhibitor, partial curve, poor fit] | –
O=C(N/N=C/c1ccc([N+](=O)[O-])cc1)c1cnccn1 | inconclusive: 16.9 µM [inhibitor, partial curve, poor fit] | –
CN(CCOc1ccccc1)C(=O)c1ccc2c(c1)OCO2 | inconclusive: 23.9 µM [inhibitor, partial curve, poor fit] | –
